Assay results published in the RNAGym collection of RNA variant scans (doi:10.7554/elife.90254).
The source gives no read counts; variants with many changes may rest on few reads.

B1: LINE1-mini (parent)
chain: GGCAGAGCUCAACACAGCGUGGCAAAGUGGCUGUGGCUAGACUGCC

Variants of: B1
Assay: self-cleavage, relative activity (ratio to wild type); higher = more cleavage; in vitro, sequencing; the parent is a self-cleaving ribozyme

Variant	self-cleavage
C3G A14U G36A	0.09
C3G C10U G40C	0.09
C3A G33C G40A G44A	0.03
C3G C15A G19A C31G G35A C45U	0.09
C3G A11C C18A	0.1
C3G C10U A26U G35A C37G	0.06
C3A U9G C18U C37A A41G C46G	0.14
C3G C18G G21U	0.06
C3G A4G U9C C13U G19C C37U	0
C3A U9A C13U G21C A24U	0.38
C3G C10A U20G C23G C31G C37A	0
C3A U28G A41C	0.05
C3G C10G A14C C45U	0.02
C3G A6G A26C G33A	0.08
C3A U28A C46U	0.44
C3G A11C C23G G29A C31A C45A	0.01
C3G A11U G22U	0.08
C3G C8G C42U	0.05
C3G A4U A41U	0.08
C3G C8A A24G C31G	0.27
C3G C10A C13U G19C C23U A39U	0.01
C3G A4U G29A	0.16
C3A U28C G30U U34C	0.13
C3A G22A A26G C37A	0.08

Variant	self-cleavage
C3G C10A U20C A24C	0.01
C3G A6U G7C C15G G44C	0.08
C3G A14C C18G G19C G22C G33C C46U	0.03
C3G C10A G33U U43C	0.01
C3G A12G U20G U43C	0.01
C3G A25G G33U	0.15
C3G C15A U28G	0.09
C3A U9G C37A	1.11
C3A G29U C46U	0.41
C3G A12C C13U C15U G22U U34C C45A	0.08
C3A G33U G36U	0.46
C3G A6G C23A	0.11
C3G A14U C23U C37A	0.08
C3A U9A U38A	0.16
C3A U9C U38C	0.07
C3G C18A G21A A26C C46G	0.01
C3A U20A A24G G33A	0.12
C3G A12C C15A	0.07
C3A G22A G29C G33C A39G	2.55
C3G A6G G7A G27C	0.07
C3G A6C C37G	0.06
C3G A6C C8A U32A	0.19
C3G A26U A39G	0.01
C3A G40A U43A	0.01

Variant	self-cleavage
C3G A6C A24U G30U C42G	0.05
C3A U9A G17A C37G	0.45
C3G A4U G5C C13A	0.57
C3G A4C C8U A12U C15U A26U G30A G36U	0.05
C3A U28G G29U	0.18
C3G A6U C8G G22A	0.02
C3G A6G U9G C15U C18U G29C G35U U38G G44A	0
C3A U20G C23A A25C C46U	0.1
C3G C15G U38C	0.1
C3G C13U C15U	0.15
C3A G29C A41G	0.51
C3G C13G G29U U34A	0.04
C3G C13A A14C	0.27
C3G C10G G21U A24U	0.06
C3G A6G C31G C37U A39C	0.02
C3G C8U U9C G30U A41C	0
C3G A16C U38G	0.04
C3A G22U C31A G44U	0.14
C3G C18A C42U U43A	0.03
C3A G29C G40U	0.06
C3G C15U C23A	0.49
C3G A14C G17A G30C	0.08
C3A U28C A41U	0.11
C3G A4G G21U G29U A41C	0.13

Variant	self-cleavage
C3G A12U G27U	0.06
C3G C10G U28C G33U	0.02
C3G A6U U9C C15G G44C	0.03
C3A G33U A39U C45U	0.22
C3G A4U U9G C15G	0.07
C3G A6U G7C C18A A39U C45G	0.01
C3A G29A G30C C42A	0.02
C3A U20A C23A G30C C31U C42A	0.19
C3G A11U G29C	0.02
C3G A25C U43A C46G	0.01
C3A G22C G30C	1.02
C3G A4U G30U G36C G40U G44C	0.02
C3G C8G C15U	0.46
C3G A4C C8G G17U G22C G33U	0.06
C3G A16G C18G	0.1
C3G C13A C15G G44A	0.02
C3G A24G G30U U32C G40U	0.14
C3A U9G C10G	0.02
C3A G44A C45U	0.14
C3A G30C C31U U38A	0.17
C3G C13U C18A U28G	0.08
C3G C13G G19U G40U	0.19
C3G A12G G17U G27C	0.1
C3A U9A A12C G21C G36C	0.02

Variant	self-cleavage
C3G A12U A16G G29A G44U	0.54
C3A G29A U32A C37A	0.28
C3G A4U A24C G29C	0.04
C3G C13A G27U G36U	0.14
C3G A39G G40A U43G C45A	0.11
C3A G22A U38G C45G	0.27
C3G C13A U43A C45A	0.11
C3G A4U G22C C37G	0.01
C3A G22A G35A A39U	0.08
C3G A4C C8U C10A	0.03
C3G A6C C8U G21C	0.19
C3G A11G G35U C45G	0.02
C3G A12U C18A C37G G40U	0.05
C3G A12U U34A	0.12
C3G A4U C8U G44U	0.18
C3G C10A U38G	0.04
C3A U9C U20A	0.05
C3A G29A G40C	0.05
C3G A12U A14C	0.05
C3A U9G G27U	0.16
C3G C8A U28A A41G	0.15
C3G A16U U20A G21A U43G	0.01
C3A G33C A41C	0.07
C3G A14U C31U	0.02

Variant	self-cleavage
C3A G33U G40A	0.05
C3G A6G U28G G40U A41U	0.1
C3G C13A A25G C45G	0.03
C3G A4U G35C G40U U43G	0.08
C3G C8U C31A G40U	0.08
C3G A4G G36U	0.09
C3G A11G G22C	0
C3G A12C U20C	0
C3G C10A G29C G33C U34A	0.01
C3A U9G G29U G30A U32C U34C U43G G44A	0.03
C3A G30U C45U	0.29
C3G A24G U43A C45G	0.4
C3A G22A G30U G35A	0.15
C3G A6C A24C	0.25
C3G C8U G30C G36C	0.15
C3A U38A U43C	0.13
C3G A4U A12U A25C G29U G44U	0.12
C3A U9C C23U U28G A39U	0.01
C3A U9G G21U U28G C31U	0.02
C3A G29U G33C	0.14
C3A U20A G35U C45G	0.05
C3A U20C U28C C31G C37A	0.05
C3G C13A G40U	0.07
C3G A11U A26G G27U	0.05

Variant	self-cleavage
C3G A16U G19C C45A	0.28
C3A G27C C31U	0.06
C3G C15A G19U C46A	0.03
C3G C15U A26C U43C	0.05
C3G C8A U32C	0.17
C3A G22C A26G G30A C31G U34A	0.06
C3G A16U G19A G22U	0.06
C3G C18G C23A	0.14
C3G A6U U32A G33C	0.12
C3A G33U C46G	0.16
C3A U20C A39G C45A	0.06
C3A G22A A25U U34A	0.11
C3G C8A A24U C42A	0.12
C3G A12G G30C	0.08
C3G A16G C31A A39C G44A	0.01
C3A U34C C42G G44A	0.08
C3G A4C A41C	0.15
C3A G22C G36A	0.51
C3G A11U C15A	0.03
C3G A16U C46U	0.04
C3A U9G C15A C42U	0.28
C3G A6G G33U U38A C45G	0.09
C3G C10U G35C G36A	0.02
